According to ChEMBL document CHEMBL1201862, “PubChem BioAssay data set” (2004):
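Briefly, cells in 96-well plates were exposed to five compound concentrations for 48 h, and endpoints were estimated by linear interpolation. GI50 is the concentration that inhibits growth by half.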 Calls of active or inactive are those of the source. No stated cut-off is given here; in the data, active = GI50 up to about 1.1 µM and inactive = higher.

test system: NCI-H322M; assay: NCI tumour cell line growth inhibition, 48 h

Row | SMILES | GI50
1 | Cc1ccc(C)n1-c1ccccc1C1SCCCS1 | inactive: > 100 µM
2 | CN(C)CCCNC(=O)N/N=C/c1ccccn1 | inactive: > 10 µM
3 | N=C(N)NS(=O)(=O)c1ccc(NC(=O)c2cccn3c(=O)c4ccccc4nc23)cc1 | inactive: 68.7 µM
4 | O=[N+]([O-])C(/C=C(\Cl)[N+](=O)[O-])=C(Nc1ccccc1)Nc1ccccc1 | inactive: 17.8 µM
5 | C=CCOC1=C(OC(C)=O)C(=O)OC1C1COC(C)(C)O1 (stereo not drawn) | inactive: > 96.2 µM
6 | O=C(O)/C=C/c1ccc(O)c(O)c1 [CAFFEIC ACID] | inactive: > 100 µM
7 | Cc1nc2c(=O)n(-c3ccccc3)c(=O)n(-c3ccccc3)c2o1 | inactive: > 100 µM
8 | CCOC(=O)c1c2c(n3ccccc13)C(=O)c1ccccc1C2=O | inactive: 3.02 µM
9 | CC(=O)OCC1OC(N2C(=O)[C@@H](Oc3ccccc3)[C@H]2/C=C/c2ccccc2)C(OC(C)=O)C(OC(C)=O)C1OC(C)=O (stereo partly drawn) | inactive: > 100 µM
10 | CCOP(=O)(OCC)/C(=C/c1cccs1)CC(C)=O | inactive: > 100 µM
11 | O=C1C=Cc2c(I)sc(I)c21 | inactive: 39.6 µM
12 | OC(C/C(=N\N1CCCCC1)c1cccs1)(C(F)(F)F)C(F)(F)F | inactive: > 10 µM
13 | C#CCn1c(=O)[nH]c(=O)c2cccnc21 | inactive: > 100 µM
14 | Cc1ccc(NC(=O)c2cc(S(=O)(=O)Nc3nc4cccnc4[nH]3)c(SSc3cc(Cl)c(C(=O)Nc4ccc(C)cc4)cc3S(=O)(=O)Nc3nc4cccnc4[nH]3)cc2Cl)cc1 | inactive: > 100 µM
15 | COC(=O)c1c(O)ccc2c1c1cc3ccccc3c(O)c1n2CCc1ccc(OC)c(OC)c1 | inactive: > 100 µM
16 | c1ccc([P+](Cc2csnn2)(c2ccccc2)c2ccccc2)cc1 | inactive: > 100 µM
17 | N=C1N(c2ccccc2)C(=O)C23CCCC2C13N1CCOCC1 (stereo not drawn) | inactive: > 100 µM

Row | SMILES | GI50
18 | COc1ccccc1NS(=O)(=O)c1ccc2ncn(NS(=O)(=O)c3ccc(Cl)cc3)c(=O)c2c1 | inactive: > 100 µM
19 | c1ccc(CN2CCC3(CC2)SSC2(CCN(Cc4ccccc4)CC2)SS3)cc1 | inactive: > 100 µM
20 | O=C1C(S(=O)(=O)c2ccccc2)=C(CS(=O)(=O)c2ccccc2)[C@@H](OCc2ccccc2)[C@@H]1OCc1ccccc1 | inactive: 19 µM
21 | CCOC(=O)C1=C(O)C(=O)c2ccoc2C1=O | inactive: > 100 µM
22 | COc1ccc(C2C(C#N)=C(S)N(C3OC(COC(C)=O)C(OC(C)=O)C(OC(C)=O)C3OC(C)=O)C(C)=C2C(C)=O)cc1 (stereo not drawn) | inactive: > 100 µM
23 | c1cc(-c2ccc(-c3ccc(-c4ccc(-c5cccc6nsnc56)[nH]4)c4nsnc34)[nH]2)c2nsnc2c1 | inactive: > 100 µM
24 | Nc1ccccc1C(=O)/C=C/c1c(O)ccc2ccccc12 | inactive: > 100 µM
25 | CN(CCCCCl)P(=O)(OCc1ccc([N+](=O)[O-])o1)OCC1OC(n2ccc(N)nc2=O)C(O)C1O (stereo not drawn) | inactive: 17.3 µM
26 | CC(C#N)Nc1ccc(Oc2ccc(C(C)(C)c3ccc(Oc4ccc(NC(C)C#N)cc4)cc3)cc2)cc1 (stereo not drawn) | inactive: > 100 µM
27 | O=C(NCC(O)COc1ccccc1)c1ccccc1O (stereo not drawn) | inactive: > 100 µM
28 | COc1cc(/N=N\c2ccc(OC)c(S(=O)(=O)O)c2)c(C)cc1/N=N\c1ccc(/C=C/c2ccc(/N=[N+](/[O-])c3ccc(/C=C/c4ccc(/N=N/c5cc(C)c(/N=N\c6ccc(OC)c(S(=O)(=O)O)c6)cc5OC)cc4S(=O)(=O)O)c(S(=O)(=O)O)c3)cc2S(=O)(=O)O)c(S(=O)(=O)O)c1 | inactive: > 100 µM
29 | CC1=[N+]([O-])C(C)(C)N(N=O)C1(C)C | inactive: > 10 µM
30 | Cc1ccc(C2=Nc3ccccc3SC(c3cccc([N+](=O)[O-])c3)C2)cc1 (stereo not drawn) | inactive: 45.4 µM
31 | COC(=O)C(C(=O)C(=O)Nc1ccc([N+](=O)[O-])cc1)c1nc2ccc([N+](=O)[O-])cc2nc1O (stereo not drawn) | inactive: > 100 µM
32 | Cc1cc(N(CC(C)Br)CC(C)Br)ccc1/N=N/c1ccccc1C(=O)O (stereo not drawn) | inactive: 2.45 µM
33 | C(=C\Nc1ccc(-c2ccccc2)cc1)/C=N/c1ccc(-c2ccccc2)cc1 | inactive: > 100 µM
